{"source": "PubChem BioAssay AID485364", "about": "(National Center for Advancing Translational Sciences (NCATS), 2010)", "note": "Screen size: about 360,000 compounds; about 11,000 (3.1%) were called active. Inconclusive means that the source gave no clear call. Such entries were picked first, then a sample of the others. The call rests on the fitted dose curve; in most records, active means well fitted inhibition curve with a large enough effect; inconclusive means small, poorly fitted or top-dose-only effect; inactive means no such curve, though single readings can be large or run the other way. Potencies of inconclusive entries are left out as doubtful fits. On the % scale 0 is the no-effect control and ±100 the full control effect; potency means the concentration at half of the fitted maximal effect; tags describe the fitted curve by direction and shape."}
{"target": "Schistosoma mansoni thioredoxin glutathione reductase (TGR) (UniProt Q962Y6)", "assay": "qHTS Assay for the Inhibitors of Schistosoma Mansoni Peroxiredoxins; further: nearly all actives have a fitted effect of over 60% in size", "conditions": "purified TGR, DTNB reduction, TNB absorbance 405 nm; activity change, negative = inhibition: at 114 µM (top of the series) unless noted", "method_in_brief": "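Kinetic colorimetric format: TGR-catalysed, NADPH-driven DTNB reduction monitored via TNB absorbance. Enzyme dispensed at 20 nM; compound exposure 15 min at room temperature before reaction start.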"}
{"smiles": "CCN(CC)P(=O)(Nc1ccc(C)cc1Br)c1ccc(N(C)C)cc1NC(=O)c1ccco1", "note": "(stereo unspecified)", "Potency": "inconclusive [inhibitor, partial curve]"}
{"smiles": "CCOc1ccc(N2C(=O)CC(SCCN)C2=O)cc1", "note": "(stereo unspecified)", "Potency": "inconclusive [inhibitor, partial curve, poor fit]"}
{"smiles": "CCOc1ccc(N(CC(=O)N2CCCCCC2)S(=O)(=O)c2ccc(F)cc2)cc1", "Potency": "inconclusive [inhibitor, partial curve]"}
{"smiles": "Cc1nn(-c2cc(Cl)ccc2N)c(=O)c2ccccc12", "Potency": "inconclusive [inhibitor, partial curve]"}
{"smiles": "O=C1CCC/C(=N/NC(=O)c2ccc(NS(=O)(=O)c3cccs3)cc2)C1", "Potency": "inconclusive [inhibitor, partial curve]"}
{"smiles": "COC(=O)c1ccc(CN(C)S(=O)(=O)c2cccs2)cc1", "activity change, negative = inhibition": "inactive: -12%"}
{"smiles": "COC(=O)C1=C(C)NC(=O)/C1=C\\c1ccc2c(c1)OCO2", "Potency": "active: 35.5 µM"}
{"smiles": "CCc1nc(N)c(C#N)c(-c2ccccc2OC)c1C", "activity change, negative = inhibition": "inactive: 1.04%"}
{"smiles": "CN(CC(=O)Nc1ccc(N2CCOCC2)cc1)C(=O)CCc1ccccc1Cl", "Potency": "active: 35.5 µM"}
{"smiles": "Cc1ccc(C(=O)N/C(=C\\c2ccc(-c3ccccc3[N+](=O)[O-])o2)C(=O)NCCCN(C)C)cc1", "Potency": "active: 8.91 µM"}
{"smiles": "O=C1NC(=O)N(c2cccc(Br)c2)C(=O)/C1=C/c1ccsc1", "Potency": "inconclusive [inhibitor, full curve, poor fit]"}
{"smiles": "CC(C)c1ccc(N2CC(C)(C)C2=O)cc1", "Potency": "inconclusive [inhibitor, single point]"}
{"smiles": "COc1ccccc1CCNC(=O)C(=O)NCC(c1cccs1)S(=O)(=O)c1cccs1", "note": "(stereo unspecified)", "Potency": "inconclusive [inhibitor, partial curve]"}
{"smiles": "CCN(CC)C(=O)c1[nH]cnc1C(=O)Nc1ccc(Cl)cc1", "Potency": "inconclusive [inhibitor, partial curve]"}
{"smiles": "COc1ccc(-n2ncc3c(NCc4cccnc4)ncnc32)cc1", "activity change, negative = inhibition": "inactive: 0.384%"}
{"smiles": "COc1ccc2[nH]c(=O)c(CN(Cc3cccs3)Cc3nnnn3Cc3ccccc3)cc2c1", "activity change, negative = inhibition": "inactive: -0.139%"}
{"smiles": "Cc1cc2nn(-c3ccccc3)nc2cc1NC(=O)c1cccs1", "activity change, negative = inhibition": "inactive: -0.068%"}
{"smiles": "COc1ccc(C2NC(=O)NC(O)(C(F)(F)F)C2C(=O)c2ccc(F)cc2)cc1", "note": "(stereo unspecified)", "Potency": "active: 44.7 µM"}
{"smiles": "COC(=O)c1ccc(C2C=C(c3ccc(Cl)cc3)Nc3nc4ccccc4n32)cc1", "note": "(stereo unspecified)", "Potency": "inconclusive [inhibitor, partial curve]"}
{"smiles": "COc1ccc(C2=C/C(=C\\c3ccccc3OC(C)=O)C(=O)O2)cc1", "Potency": "inconclusive [inhibitor, partial curve, poor fit]"}
{"smiles": "CN(Cc1cccs1)C(=O)CNC(=O)c1ccco1", "activity change, negative = inhibition": "inactive: -27.3%"}
{"smiles": "O=C1/C(=C\\Nc2ccccc2)CCN1c1ncccn1", "Potency": "inconclusive [inhibitor, single point]"}
{"smiles": "CC(C)(C)n1ncc2c(=O)n(CC(=O)Nc3ccc(Cl)cc3)cnc21", "activity change, negative = inhibition": "inactive: -0.564%"}
{"smiles": "CCOc1ccc(NC(=S)NCc2ccc3c(c2)OCO3)cc1", "Potency": "active: 5.01 µM"}
{"smiles": "C=CCn1c(CCNC(=O)c2ccco2)nc2ccccc21", "activity change, negative = inhibition": "inactive: -6.04%"}
{"smiles": "CCCc1cc(=O)oc2c(CN3CCN(C)CC3)c(O)c(Cl)cc12", "Potency": "inconclusive [inhibitor, partial curve, poor fit]"}
{"smiles": "COc1ccc(S(=O)(=O)CCC(=O)NCCc2ccc(S(N)(=O)=O)cc2)cc1", "Potency": "active: 39.8 µM"}
{"smiles": "CC(=O)c1ccc(-c2ccc(C(=O)NC3CC(C)(C)NC(C)(C)C3)o2)cc1", "Potency": "inconclusive [inhibitor, partial curve]"}
{"smiles": "Cc1ccc(C(=O)NC(=S)Nc2ccccc2C(F)(F)F)cc1", "Potency": "inconclusive [inhibitor, partial curve]"}
{"smiles": "O=C1CC(N2CCOCC2)C(=O)N1c1cccc(Cl)c1", "note": "(stereo unspecified)", "Potency": "inconclusive [inhibitor, full curve, poor fit]"}
{"smiles": "COc1ccc(C)cc1S(=O)(=O)N1CCN(c2ccccc2)CC1", "Potency": "inconclusive [inhibitor, partial curve]"}
{"smiles": "COc1ccc(Nc2c3c(nc4ccccc24)CCC3)c(OC)c1", "Potency": "inconclusive [inhibitor, partial curve]"}
{"smiles": "CCOc1ccccc1CN1CCCC(C(=O)c2cc(F)ccc2F)C1", "note": "(stereo unspecified)", "Potency": "inconclusive [inhibitor, full curve, poor fit]"}
{"smiles": "CN=c1scc(C)n1/N=C/c1ccc(O)c(O)c1O", "Potency": "active: 22.4 µM"}
{"smiles": "O=S(=O)(NCCc1ccccc1)c1cccc(S(=O)(=O)N2CCOCC2)c1", "Potency": "active: 35.5 µM"}
{"smiles": "O=C1c2c(Br)c(Br)c(Br)c(Br)c2C(=O)N1c1ccccn1", "Potency": "inconclusive [inhibitor, full curve]"}
{"smiles": "O=C(CCCCn1c(=O)c2ccccc2n(CC(=O)Nc2cccc(F)c2)c1=O)NCc1ccco1", "Potency": "inconclusive [inhibitor, partial curve]"}
{"smiles": "O=C(CN1C(=O)S/C(=C\\C=C\\c2ccccc2)C1=O)Nc1ccccc1C(=O)O", "Potency": "inconclusive [inhibitor, single point]"}
{"smiles": "CCOC(=O)N1CCN(Cc2nc3c(c(=O)n(C)c(=O)n3C)n2Cc2cccc(C)c2)CC1", "activity change, negative = inhibition": "inactive: 10.4% [at 11.4 µM]"}
{"smiles": "CCNc1nc(NCC)nc(N(C)/N=C/c2ccco2)n1", "Potency": "active: 35.5 µM"}
{"smiles": "CCc1ccc(NC(=O)C2CCN(c3ncnc4c3nc3n4CCCCC3)CC2)cc1", "activity change, negative = inhibition": "inactive: -12.4%"}
{"smiles": "CCCCCc1cc(=O)oc2c(C(CCN3CCCC(C)C3)c3cc(OC)c(OC)c(OC)c3)c(OC)cc(OC)c12", "note": "(stereo unspecified)", "Potency": "inconclusive [inhibitor, partial curve]"}
{"smiles": "COc1cc(/C=C2\\C(=O)N(c3ccccc3)N=C2C)ccc1Oc1ccc([N+](=O)[O-])cc1[N+](=O)[O-]", "Potency": "active: 14.1 µM"}
{"smiles": "CCc1ccc(NC(=O)c2sc3nc4c(cc3c2N)CN(CC)CC4)cc1", "Potency": "inconclusive [inhibitor, single point]"}
{"smiles": "COc1ccc(OCC(=O)Nc2ccc(Cl)cc2)cc1", "activity change, negative = inhibition": "inactive: 0.354%"}
{"smiles": "O=C(NC(=S)Nc1ccccc1N1CCOCC1)c1cccc([N+](=O)[O-])c1", "Potency": "inconclusive [inhibitor, full curve, poor fit]"}
